Source: PubChem BioAssay AID2101 (National Center for Advancing Translational Sciences (NCATS), 2009)
The whole screen tested about 330,000 compounds, of which about 300 (0.091%) were called active. The inconclusive results got no clear call from the source; some entries with a clear call stand among them for comparison. Calls come from the whole dose curve; as a rule, active = well fitted inhibition curve with a large enough effect; inconclusive = small, poorly fitted or top-dose-only effect, or effect the other way, or another doubt; inactive = no such curve, though single readings can be large or run the other way. No potency is given beside an inconclusive call; the fits are too rough.

biological target: Lysosomal acid glucosylceramidase (Homo sapiens) (UniProt P04062); assay: qHTS Assay for Inhibitors and Activators of N370S glucocerebrosidase as a Potential Chaperone Treatment of Gaucher Disease; details: N370S GC spleen homogenate, 4MU-glucoside fluorescence; activity change, negative = inhibition: at 59.4 µM (top of the series) unless noted;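 for activity change, negative = inhibition: 0% = full enzyme activity and -100% = no enzyme basal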
Potency is the fitted concentration of half-maximal effect.

| Compound | Potency | activity change, negative = inhibition |
| --- | --- | --- |
| COc1ccc(N(CC(=O)Nc2cc(C)ccc2C)S(=O)(=O)c2c(C)[nH]c(=O)[nH]c2=O)cc1 | inconclusive [inhibitor, partial curve, poor fit] |  |
| CC(C)Cc1ccc(C(C)C(=O)OCC(=O)c2c[nH]c3ccccc23)cc1 (stereo unspecified) | inconclusive [activator, partial curve, poor fit] |  |
| CCC(NC(=O)OC(C)(C)C)C(=O)Oc1ccc2c3c(c(=O)oc2c1)CCC3 (stereo unspecified) | inconclusive [activator, partial curve] |  |
| Cc1c(C(=O)N2C[C@@H](C)O[C@@H](C)C2)oc2c(F)cccc12 |  | inactive: -4.17% |
| COc1ccc(Cc2nc(-c3ccccc3)no2)cc1 |  | inactive: -0.828% |
| CCn1c2ccccc2c2c3ncc4cccn4c3ccc21 | inconclusive [activator, partial curve] |  |
| O=C(NC12CC3CC(CC(C3)C1)C2)c1ccc(S(=O)(=O)N2CCOCC2)cc1 | inconclusive [inhibitor, full curve, poor fit] |  |
| N=c1n(CC(=O)c2ccc([N+](=O)[O-])cc2)c2ccccc2n1Cc1ccccc1 |  | inactive: 9.59% |
| Cc1cc(NCCCn2ccnc2)n2nc(C)c(-c3ccc(Cl)cc3)c2n1 | inconclusive [activator, partial curve, poor fit] |  |
| CC(C)CN(CCCNC(=O)CN1N=C(c2ccc(Cl)cc2)CCC1=O)CC(C)C | inconclusive [inhibitor, single point] |  |
| O=S(=O)(Nc1ccc(O)c(Sc2nc3ccccc3s2)c1)c1ccc(F)cc1 | inconclusive [activator, partial curve] |  |
| S=C(NCc1ccncc1)Nc1cc(Cl)cc(Cl)c1 | inconclusive [inhibitor, partial curve] |  |
| CCc1nn(CC(=O)NCCN2CCN(C)CC2)c(=O)c2cc3c(OC)cccc3n12 | inconclusive [activator, single point] |  |
| O=C(COC(=O)C1CCN(S(=O)(=O)c2cc([N+](=O)[O-])ccc2Cl)CC1)Nc1ncc(Cl)cc1Cl | inconclusive [inhibitor, full curve, poor fit] |  |
| O=C(CSc1nnc(-c2ccc(Br)o2)n1Cc1ccccc1)c1ccccc1F | inconclusive [activator, partial curve] |  |
| CCCSc1nnc(N2C(=O)C(O)=C(C(=O)c3ccco3)C2c2ccccc2F)s1 (stereo unspecified) | inconclusive [activator, single point] |  |
| N#Cc1cccc(C(=O)Nc2ccccc2C(=O)NC2CC2)c1 | inconclusive [inhibitor, partial curve, poor fit] |  |
| COc1ccc(CNCc2c(O)c(Cl)cc3c(C)c(C)c(=O)oc23)c(OC)c1 | inconclusive [activator, partial curve] |  |
| Cc1cccc(NC(=S)NC(C)C(c2ccccc2)N2CCN(C)CC2)c1C (stereo unspecified) | inconclusive [inhibitor, single point] |  |
| Cc1[nH]c2ccccc2c1/C=N/NC(=O)Cc1cccs1 | inconclusive [activator, partial curve] |  |
| CC(C)(C)c1ccc(C(=O)NCC(=O)OCC(=O)Nc2nc(-c3ccc(F)cc3)cs2)cc1 |  | inconclusive: 31.6% [activator] |

| Compound | Potency | activity change, negative = inhibition |
| --- | --- | --- |
| O=C(Nc1cc(C(F)(F)F)ccc1N1CCOCC1)c1ccccc1F | inconclusive [activator, partial curve] |  |
| Cc1nc(SCC(C)C)[nH]c(=O)c1Cc1ccccc1 | inconclusive [activator, partial curve] |  |
| O=C(NC1CCCCC1)NC1CCN(CC(=O)N2CCOCC2)CC1 |  | inactive: -7.56% |
| Cn1cc(CNCc2cnc3ccccn23)c(-c2ccc(Oc3ccccc3)cc2)n1 | inconclusive [inhibitor, single point] |  |
| Cc1noc(NS(=O)(=O)c2ccc(NC(=O)c3cc(F)c(F)c(F)c3F)cc2)c1C | inconclusive [inhibitor, full curve, poor fit] |  |
| CCCn1c(SCCC(=O)O)nc2ccccc21 |  | inactive: 20.8% |
| O=C(COC(=O)c1ccccc1NCCO)NNC(=O)c1cccs1 | inconclusive [activator, partial curve] |  |
| Cc1ccccc1-n1ncc2c([N+](=O)[O-])cc([N+](=O)[O-])cc21 | inconclusive [inhibitor, single point] |  |
| O=C(COc1ccccc1[N+](=O)[O-])Nc1ccc2oc(=O)ccc2c1 | inconclusive [activator, partial curve] |  |
| COc1ccc(-c2ccoc2)cc1[C@H]1[C@H]2C=CC[C@@H](C)[C@@H]2C(=O)N1Cc1ccccc1 | inconclusive [activator, partial curve] |  |
| COc1cccc(N2CCc3c(C)nc4ccc(Cl)cc4c32)c1 | inconclusive [activator, partial curve] |  |
| O=C(/C=C\Nc1ccc2c(c1)OCO2)c1cccs1 |  | inactive: 2.16% |
| O=C(NCc1ccccc1)c1cc(S(=O)(=O)N2CCCCC2)ccc1N1CCOCC1 | inconclusive [activator, single point] |  |
| Cc1cc(OC(F)F)ccc1NC(=S)NCCc1ccccc1 | inconclusive [activator, single point] |  |
| O=C(CSCc1ccccc1Cl)Nc1ccc2c(c1)OCCO2 |  | inactive: 15.9% |
| CCN(CC)c1ccc(/C=N/NC(=O)Nc2ccccc2)cc1 | inconclusive [activator, partial curve] |  |
| CN(Cc1ccccc1)C(=O)COC(=O)c1cc(-c2ccc(Cl)s2)nc2ccccc12 |  | inactive: 17.9% |
| COc1cc(CC(=O)NCCc2ccc(OCc3ccccc3)cc2)c([N+](=O)[O-])cc1OC | inconclusive [inhibitor, single point] |  |
| Cc1cc(NC(=O)CS(=O)(=O)Cc2ccccc2)no1 | inconclusive [inhibitor, partial curve] |  |
| CCO[C@H]1OC(C(=O)NCc2ccccc2)=C[C@@H](c2ccc(C(F)(F)F)cc2)[C@@H]1CCCO | inconclusive [activator, partial curve, poor fit] |  |
